Data as given in US20240270806A1 (Chugai, published 2024).

B1: Bivalent IL-12 fusion protein FP44 (other)
heavy: QVQLVQSGAEVKKPGSSVKVSCKASGGTFSDYYLHWSRQAPGQGLEWMGWIDPENGDTEYAPKFQGRVTITADESTSTAYMELSSLRSEDTAVYYCARNKELRYIDVWGQGTLVTVSSTSGSGRSATPRGASTKGPSVFPLAPCSKSTSGGTAALGCLVKDYFPEPVTVSWNSGALTSGVHTFPAVLQSSGLYSLSSVVTVPSSSLGTQTYICNVNHKPSNTKVDKRVGGGGSGGGGS[human IgG1 Fc with changes cut from this listing]GSGGSGGSGGSGGSGGSIWELKKDVYVVELDWVPDAPGEMVVLTCDTPEEDGITWTLDQSSEVLGSGKTLTIQVKEFGDAGQYTCHKGGEVLSHSLLLLHKKEDGIWSTDILKDQKEPKNKTFLRCEAKNYSGRFTCWWLTTISTDLTFSVKSSRGSSDPQGVTCGAATLSAERVRGDNKEYEYSVECQEDSACPAAEESLPIEVMVDAVHKLKYENYTSSFFIRDIIKPDPPKNLQLKPLKNSRQVEVSWEYPDTWSTPHSYFSLTFCVQVQGKHKEKKDRVFTDKTSATVICRKNASISVRAQDRYYSSSWSEWASVPCSGGGGSGGGGSGGGGSGGGGSNLPVATPDPGMFPCLHHSQNLLRAVSNMLQKARQTLEFYPCTSEEIDHEDITKDKTSTVEACLPLELTKNESCLNSRETSFITNGSCLASRKTSFMMALCLSSIYEDLKMYQVEFKTMNAKLLMDPKRQIFLDQNMLAVIDELMQALNFNSETVPQKSSLEEPDFYKTKIKLCILLHAFRIRAVTIDRVMSYLNAS
light: DIVMTQSPLSLPVTPGEPASISCRASQSISINLHWYQQKPGQAPRQLIAFASQSISGVPSRFSGSGSGTDFTLTISSLQPEDFATYYCQQSNSFPLTFGQGTKVEIKRTVAAPSVFIFPPSDEQLKSGTASVVCLLNNFYPREAKVQWKVDNALQSGNSQESVTEQDSKDSTYSLSSTLTLSKADYEKHKVYACEVTHQGLSSPVTKSFNRGEC
B2: Bivalent IL-12 fusion protein FP40 (other)
heavy: QVQLVQSGAEVKKPGSSVKVSCKASGGTFSDYYLHWSRQAPGQGLEWMGWIDPENGDTEYAPKFQGRVTITADESTSTAYMELSSLRSEDTAVYYCARNKELRYIDVWGQGTLVTVSSTSGSGRSATPRGASTKGPSVFPLAPCSKSTSGGTAALGCLVKDYFPEPVTVSWNSGALTSGVHTFPAVLQSSGLYSLSSVVTVPSSSLGTQTYICNVNHKPSNTKVDKRVGGGGSGGGGS[human IgG1 Fc with changes cut from this listing]GSGGSGGSGGSGGSGGSIWELKKDVYVVELDWQPDAPGEMVVLTCDTPEEDGITWTLDQSSEVLGSGKTLTIQVKEFGDAGQYTCHKGGEVLSHSLLLLHKKEDGIWSTDILKDQKEPKNKTFLRCEAKNYSGRFTCWWLTTISTDLTFSVKSSRGSSDPQGVTCGAATLSAERVRGDNKEYEYSVECQEDSACPAAEESLPIEVMVDAVHKLKYENYTSSFFIRDIIKPDPPKNLQLKPLKNSRQVEVSWEYPDTWSTPHSYFSLTFCVQVQGKHKEKKDRVFTDKTSATVICRKNASISVRAQDRYYSSSWSEWASVPCSGGGGSGGGGSGGGGSGGGGSNLPVATPDPGMFPCLHHSQNLLRAVSNMLQKARQTLEFYPCTSEEIDHEDITKDKTSTVEACLPLELTKNESCLNSRETSFITNGSCLASRKTSFMMALCLSSIYEDLKMYQVEFKTMNAKLLMDPKRQIFLDQNMLAVIDELMQALNFNSETVPQKSSLEEPDFYKTKIKLCILLHAFRIRAVTIDRVMSYLNAS
light: B1 light
B3: Bivalent IL-12 fusion protein FP39 (other)
heavy: QVQLVQSGAEVKKPGSSVKVSCKASGGTFSDYYLHWSRQAPGQGLEWMGWIDPENGDTEYAPKFQGRVTITADESTSTAYMELSSLRSEDTAVYYCARNKELRYIDVWGQGTLVTVSSTSGSGRSATPRGASTKGPSVFPLAPCSKSTSGGTAALGCLVKDYFPEPVTVSWNSGALTSGVHTFPAVLQSSGLYSLSSVVTVPSSSLGTQTYICNVNHKPSNTKVDKRVGGGGSGGGGS[human IgG1 Fc with changes cut from this listing]GSGGSGGSGGSGGSGGSIWELKKDVYVVELDWMPDAPGEMVVLTCDTPEEDGITWTLDQSSEVLGSGKTLTIQVKEFGDAGQYTCHKGGEVLSHSLLLLHKKEDGIWSTDILKDQKEPKNKTFLRCEAKNYSGRFTCWWLTTISTDLTFSVKSSRGSSDPQGVTCGAATLSAERVRGDNKEYEYSVECQEDSACPAAEESLPIEVMVDAVHKLKYENYTSSFFIRDIIKPDPPKNLQLKPLKNSRQVEVSWEYPDTWSTPHSYFSLTFCVQVQGKHKEKKDRVFTDKTSATVICRKNASISVRAQDRYYSSSWSEWASVPCSGGGGSGGGGSGGGGSGGGGSNLPVATPDPGMFPCLHHSQNLLRAVSNMLQKARQTLEFYPCTSEEIDHEDITKDKTSTVEACLPLELTKNESCLNSRETSFITNGSCLASRKTSFMMALCLSSIYEDLKMYQVEFKTMNAKLLMDPKRQIFLDQNMLAVIDELMQALNFNSETVPQKSSLEEPDFYKTKIKLCILLHAFRIRAVTIDRVMSYLNAS
light: B1 light
B4: Bivalent IL-12 fusion protein FP35 (other)
heavy: QVQLVQSGAEVKKPGSSVKVSCKASGGTFSDYYLHWSRQAPGQGLEWMGWIDPENGDTEYAPKFQGRVTITADESTSTAYMELSSLRSEDTAVYYCARNKELRYIDVWGQGTLVTVSSTSGSGRSATPRGASTKGPSVFPLAPCSKSTSGGTAALGCLVKDYFPEPVTVSWNSGALTSGVHTFPAVLQSSGLYSLSSVVTVPSSSLGTQTYICNVNHKPSNTKVDKRVGGGGSGGGGS[human IgG1 Fc with changes cut from this listing]GSGGSGGSGGSGGSGGSIWELKKDVYVVELDWDPDAPGEMVVLTCDTPEEDGITWTLDQSSEVLGSGKTLTIQVKEFGDAGQYTCHKGGEVLSHSLLLLHKKEDGIWSTDILKDQKEPKNKTFLRCEAKNYSGRFTCWWLTTISTDLTFSVKSSRGSSDPQGVTCGAATLSAERVRGDNKEYEYSVECQEDSACPAAEESLPIEVMVDAVHKLKYENYTSSFFIRDIIKPDPPKNLQLKPLKNSRQVEVSWEYPDTWSTPHSYFSLTFCVQVQGKHKEKKDRVFTDKTSATVICRKNASISVRAQDRYYSSSWSEWASVPCSGGGGSGGGGSGGGGSGGGGSNLPVATPDPGMFPCLHHSQNLLRAVSNMLQKARQTLEFYPCTSEEIDHEDITKDKTSTVEACLPLELTKNESCLNSRETSFITNGSCLASRKTSFMMALCLSSIYEDLKMYQVEFKTMNAKLLMDPKRQIFLDQNMLAVIDELMQALNFNSETVPQKSSLEEPDFYKTKIKLCILLHAFRIRAVTIDRVMSYLNAS
light: B1 light
B5: Bivalent IL-12 fusion protein FP37 (other)
heavy: QVQLVQSGAEVKKPGSSVKVSCKASGGTFSDYYLHWSRQAPGQGLEWMGWIDPENGDTEYAPKFQGRVTITADESTSTAYMELSSLRSEDTAVYYCARNKELRYIDVWGQGTLVTVSSTSGSGRSATPRGASTKGPSVFPLAPCSKSTSGGTAALGCLVKDYFPEPVTVSWNSGALTSGVHTFPAVLQSSGLYSLSSVVTVPSSSLGTQTYICNVNHKPSNTKVDKRVGGGGSGGGGS[human IgG1 Fc with changes cut from this listing]GSGGSGGSGGSGGSGGSIWELKKDVYVVELDWIPDAPGEMVVLTCDTPEEDGITWTLDQSSEVLGSGKTLTIQVKEFGDAGQYTCHKGGEVLSHSLLLLHKKEDGIWSTDILKDQKEPKNKTFLRCEAKNYSGRFTCWWLTTISTDLTFSVKSSRGSSDPQGVTCGAATLSAERVRGDNKEYEYSVECQEDSACPAAEESLPIEVMVDAVHKLKYENYTSSFFIRDIIKPDPPKNLQLKPLKNSRQVEVSWEYPDTWSTPHSYFSLTFCVQVQGKHKEKKDRVFTDKTSATVICRKNASISVRAQDRYYSSSWSEWASVPCSGGGGSGGGGSGGGGSGGGGSNLPVATPDPGMFPCLHHSQNLLRAVSNMLQKARQTLEFYPCTSEEIDHEDITKDKTSTVEACLPLELTKNESCLNSRETSFITNGSCLASRKTSFMMALCLSSIYEDLKMYQVEFKTMNAKLLMDPKRQIFLDQNMLAVIDELMQALNFNSETVPQKSSLEEPDFYKTKIKLCILLHAFRIRAVTIDRVMSYLNAS
light: B1 light
B6: Bivalent IL-12 fusion protein FP45 (other)
heavy: QVQLVQSGAEVKKPGSSVKVSCKASGGTFSDYYLHWSRQAPGQGLEWMGWIDPENGDTEYAPKFQGRVTITADESTSTAYMELSSLRSEDTAVYYCARNKELRYIDVWGQGTLVTVSSTSGSGRSATPRGASTKGPSVFPLAPCSKSTSGGTAALGCLVKDYFPEPVTVSWNSGALTSGVHTFPAVLQSSGLYSLSSVVTVPSSSLGTQTYICNVNHKPSNTKVDKRVGGGGSGGGGS[human IgG1 Fc with changes cut from this listing]GSGGSGGSGGSGGSGGSIWELKKDVYVVELDWWPDAPGEMVVLTCDTPEEDGITWTLDQSSEVLGSGKTLTIQVKEFGDAGQYTCHKGGEVLSHSLLLLHKKEDGIWSTDILKDQKEPKNKTFLRCEAKNYSGRFTCWWLTTISTDLTFSVKSSRGSSDPQGVTCGAATLSAERVRGDNKEYEYSVECQEDSACPAAEESLPIEVMVDAVHKLKYENYTSSFFIRDIIKPDPPKNLQLKPLKNSRQVEVSWEYPDTWSTPHSYFSLTFCVQVQGKHKEKKDRVFTDKTSATVICRKNASISVRAQDRYYSSSWSEWASVPCSGGGGSGGGGSGGGGSGGGGSNLPVATPDPGMFPCLHHSQNLLRAVSNMLQKARQTLEFYPCTSEEIDHEDITKDKTSTVEACLPLELTKNESCLNSRETSFITNGSCLASRKTSFMMALCLSSIYEDLKMYQVEFKTMNAKLLMDPKRQIFLDQNMLAVIDELMQALNFNSETVPQKSSLEEPDFYKTKIKLCILLHAFRIRAVTIDRVMSYLNAS
light: B1 light
B7: Bivalent IL-12 fusion protein FP48 (other)
heavy: QVQLVQSGAEVKKPGSSVKVSCKASGGTFSDYYLHWSRQAPGQGLEWMGWIDPENGDTEYAPKFQGRVTITADESTSTAYMELSSLRSEDTAVYYCARNKELRYIDVWGQGTLVTVSSYSATGRSANPRGASTKGPSVFPLAPCSKSTSGGTAALGCLVKDYFPEPVTVSWNSGALTSGVHTFPAVLQSSGLYSLSSVVTVPSSSLGTQTYICNVNHKPSNTKVDKRVGGGGSGGGGS[human IgG1 Fc with changes cut from this listing]GSGGSGGSGGSGGSGGSIWELKKDVYVVELDWPPDAPGEMVVLTCDTPEEDGITWTLDQSSEVLGSGKTLTIQVKEFGDAGQYTCHKGGEVLSHSLLLLHKKEDGIWSTDILKDQKEPKNKTFLRCEAKNYSGRFTCWWLTTISTDLTFSVKSSRGSSDPQGVTCGAATLSAERVRGDNKEYEYSVECQEDSACPAAEESLPIEVMVDAVHKLKYENYTSSFFIRDIIKPDPPKNLQLKPLKNSRQVEVSWEYPDTWSTPHSYFSLTFCVQVQGKHKEKKDRVFTDKTSATVICRKNASISVRAQDRYYSSSWSEWASVPCSGGGGSGGGGSGGGGSGGGGSNLPVATPDPGMFPCLHHSQNLLRAVSNMLQKARQTLEFYPCTSEEIDHEDITKDKTSTVEACLPLELTKNESCLNSRETSFITNGSCLASRKTSFMMALCLSSIYEDLKMYQVEFKTMNAKLLMDPKRQIFLDQNMLAVIDELMQALNFNSETVPQKSSLEEPDFYKTKIKLCILLHAFRIRAVTIDRVMSYLNAS
light: B1 light with S30V

Each binder was assayed against Human IL-12 receptor (human IL-12Rb1 and IL-12Rb2) (human, UniProt P42701 24-662; Q99665 24-862) (assay: cell-based or functional assay).

Fold change (window), IL-12 luciferase assay [fold] | Binder
33.9 | B1
42.1 | B2
47.4 | B3
89.7 | B4
52.4 | B5
67.2 | B6
391 | B7

Changes are numbered by the printed parent chain.
